Experimental data as given in PubChem BioAssay AID2546 (National Center for Advancing Translational Sciences (NCATS), 2010).
The campaign covered roughly 310,000 compounds. About 11,000 (3.5%) were called active. Inconclusive means that the source gave no clear call. Such entries were picked first, then a sample of the others. The call rests on the fitted dose curve; in most records, active means well fitted inhibition curve with a large enough effect; inconclusive means small, poorly fitted or top-dose-only effect, or effect the other way; inactive means flat fitted curve, though single readings scatter. No potency is given beside an inconclusive call; the fits are too rough.

Experiment: VP16 counterscreen qHTS for inhibitors of ROR gamma transcriptional activity;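 further: Gal4-VP16 expression switched on by copper sulfate through the metallothionein promoter; nearly all actives have a fitted effect of over 50% in size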
Details: Drosophila S2 Gal4-VP16 UAS-luciferase, luminescence, 20 h; activity, negative = inhibition: at 53.6 µM (top of the series)
On the % scale 0 is the no-effect control and ±100 the full control effect; potency means the concentration at half of the fitted maximal effect; tags describe the fitted curve by direction and shape.

SMILES | Potency | activity, negative = inhibition
C[C@H](NC(=O)c1nc[nH]c1C(=O)N[C@@H](C)C(=O)OC(C)(C)C)C(=O)OCc1ccccc1 | inconclusive [inhibitor, single point] | 
CCOC(=O)N1CCN(CC(=O)Nc2cc(C)nn2-c2nc3ccccc3s2)CC1 | inconclusive [inhibitor, single point] | 
COc1cccc(Cn2c(=O)c(-c3cn(C)c4ccccc34)nc3cnc(N4CCNCC4)nc32)c1 | inconclusive [inhibitor, single point] | 
O=C(Nc1ccccc1-c1ccccc1)c1ccc(=O)[nH]n1 |  | inactive: 8.53%
COc1ccc2[nH]c(C)c(CCNC(=S)Nc3ccc(F)cc3)c2c1 | active: 3.55 µM | 
S=C(NC1CC1)NC1CCCc2ccccc21 (centres undefined) | inconclusive [inhibitor, single point] | 
Cc1ccc(CSc2nccc(-c3c(C)nc4ccccn34)n2)cc1 |  | inactive: -23.5%
O=C(c1cc(Sc2cccc(Cl)c2)nc2ccccc12)N1CCN(c2ccccn2)CC1 | inconclusive [inhibitor, full curve, poor fit] | 
CC(=O)O[C@H]1Cc2ccccc2N(C(N)=O)c2ccccc21 |  | inactive: -7.54%
Cc1cc2cc3c(cc2nc1SCC(=O)N1CCOCC1)OCO3 |  | inactive: -1.08%
Cc1ccc(-c2cc(C(=O)NCCCN3CCOCC3)c3ccc(Cl)c(C)c3n2)cc1 | inconclusive [inhibitor, single point] | 
O=C(NC(=S)Nc1cccc(Cl)c1N1CCCCC1)c1ccco1 | active: 7.08 µM | 
Cc1nc2ccccc2n1CCc1nc2c3ccccc3nc(=S)n2[nH]1 | active: 10 µM | 
O=C(Nc1nc(-c2ccc(S(=O)(=O)N3CCCCCC3)cc2)cs1)c1ccccc1 |  | inactive: -2.71%
O=C(c1cn(-c2ccccc2)nc1-c1cccs1)N1CCN(c2ccccn2)CC1 |  | inactive: 2.44%
O=C(NCCc1ccccc1)C1CCN(S(=O)(=O)c2cccnc2)CC1 | inconclusive [inhibitor, partial curve] | 
N#CCc1ccc(NC(=O)c2ccc(S(=O)(=O)N3CCCC3)cc2)cc1 |  | inactive: -1.03%
Cc1ccc(-n2c(Cc3ccccc3)n[nH]c2=S)c(C)c1 | inconclusive [inhibitor, partial curve] | 
O=C(NCC1CCCO1)C(=O)N/N=C/c1ccc(O)c(Cl)c1 (centres undefined) |  | inactive: 3.84%
O=C(CCl)N1c2ccccc2SCC1c1ccccc1 (centres undefined) | active: 14.1 µM | 
COc1ccccc1N1CCN(CC(=O)Nc2cc(F)ccc2C)CC1 |  | inactive: -3.69%
COc1ccc(-c2cc3nc4ccccc4n3c(N)c2C#N)cc1 | inconclusive [activator, full curve, poor fit] | 
O=C(Nc1ccccc1Br)c1cc(=O)c2ccccc2o1 | inconclusive [inhibitor, single point] | 
CCOC(=O)CSc1nc2c(sc(=S)n2-c2ccc(OCC)cc2)c(=O)[nH]1 |  | inactive: -10.2%
C=CCn1c(COc2ccccc2)nnc1SCC(=O)N/N=C/c1cc(Cl)ccc1O | inconclusive [inhibitor, single point] | 

SMILES | Potency | activity, negative = inhibition
Cc1ccc(-n2nnnc2CSc2nnc(-c3ccc(O)cc3)o2)cc1 | inconclusive [inhibitor, single point] | 
CSc1nnc(NC(=O)c2cc(=O)c3cc(C)cc(C)c3o2)s1 | inconclusive [inhibitor, single point] | 
CC(C)CCNC(=S)Nc1ccc(Br)cc1 | active: 10 µM | 
O=C1CS/C(=N/N=C2C3CC4CC(C3)CC2C4)N1 | active: 3.16 µM | 
O=[N+]([O-])c1cc(S(=O)(=O)NC2=NCCCCC2)ccc1Cl | inconclusive [activator, single point] | 
O=C(Nc1ccc(NC(=O)C2CC2)cn1)c1ccccc1 | active: 0.1 µM | 
C/C(=N\c1nc2ccccc2n1C)c1cc(Cl)ccc1O |  | inactive: -2.88%
Cc1nc(S/C(=C/c2ccc(-c3cccc(Cl)c3)o2)C(=O)O)n[nH]1 | active: 3.55 µM | 
Cc1ccc(-c2cc(C(=O)N/N=C/c3c[nH]c4ccccc34)[nH]n2)cc1 | inconclusive [inhibitor, single point] | 
COCCSc1nnc(NC(=O)C(C)(C)C)s1 | inconclusive [inhibitor, single point] | 
Cc1ccc(-c2c3c(=O)n(C)c(=O)n(C)c3cn2-n2cnnc2)cc1 | inconclusive [inhibitor, single point] | 
COC(=O)c1cc2occc2n1Cc1c(F)cccc1Cl | inconclusive [inhibitor, partial curve] | 
O=c1c2ccccc2c(=O)n(Cc2ccccc2)n1Cc1ccccc1 |  | inactive: -16.6%
COc1ccc(N2CCN(CC(O)COc3ccc4c(c3)CCC4)CC2)cc1 (centres undefined) |  | inactive: -1.18%
CCCC[n+]1ccn(C2=C([O-])c3ccccc3C(=O)/C2=N\S(=O)(=O)c2ccccc2)c1 | inconclusive [inhibitor, single point] | 
CCn1c(SCc2ccccc2)nnc1C1CCCCC1 | inconclusive [inhibitor, single point] | 
O=C(NCCCn1cccn1)c1cc(COc2ccc(F)cc2Cl)on1 | inconclusive [activator, partial curve] | 
Cc1ccc2cc(/C=C/C(=O)c3ccco3)c(Cl)nc2c1 | inconclusive [inhibitor, single point] | 
Cc1nc(Cl)sc1C(=O)NC(C)c1ccc(Cl)cc1 (centres undefined) | inconclusive [inhibitor, single point] | 
Cc1c(Cl)cccc1NC(=S)NCc1cccs1 | active: 7.08 µM | 
CCCc1nc2ccccc2c(=O)n1/N=C/c1ccccc1O | active: 10 µM | 
CN=c1scc(-c2cc(OC)ccc2OC)n1/N=C/c1c(C)[nH]c2ccccc12 | inconclusive [inhibitor, single point] | 
Cc1ccnc(SCc2ccc([N+](=O)[O-])cc2)n1 | inconclusive [activator, full curve, poor fit] | 
O=C(NCc1ccco1)C1CCCN(c2nnc(-n3cccc3)s2)C1 (centres undefined) |  | inactive: -6.31%
